# The whole screen tested about 310,000 compounds, of which about 2,200 (0.71%) showed an effect of 50% or more. Effects have a minus sign here. The list shows a part of the results.
# Molecular target: human ether-à-go-go-related gene (hERG) potassium channel (human, UniProt Q12809)
# Assay: primary screen, population patch clamp on CHO cells stably expressing hERG
# Chain of human ether-à-go-go-related gene (hERG) potassium channel (Q12809 whole entry, looked up): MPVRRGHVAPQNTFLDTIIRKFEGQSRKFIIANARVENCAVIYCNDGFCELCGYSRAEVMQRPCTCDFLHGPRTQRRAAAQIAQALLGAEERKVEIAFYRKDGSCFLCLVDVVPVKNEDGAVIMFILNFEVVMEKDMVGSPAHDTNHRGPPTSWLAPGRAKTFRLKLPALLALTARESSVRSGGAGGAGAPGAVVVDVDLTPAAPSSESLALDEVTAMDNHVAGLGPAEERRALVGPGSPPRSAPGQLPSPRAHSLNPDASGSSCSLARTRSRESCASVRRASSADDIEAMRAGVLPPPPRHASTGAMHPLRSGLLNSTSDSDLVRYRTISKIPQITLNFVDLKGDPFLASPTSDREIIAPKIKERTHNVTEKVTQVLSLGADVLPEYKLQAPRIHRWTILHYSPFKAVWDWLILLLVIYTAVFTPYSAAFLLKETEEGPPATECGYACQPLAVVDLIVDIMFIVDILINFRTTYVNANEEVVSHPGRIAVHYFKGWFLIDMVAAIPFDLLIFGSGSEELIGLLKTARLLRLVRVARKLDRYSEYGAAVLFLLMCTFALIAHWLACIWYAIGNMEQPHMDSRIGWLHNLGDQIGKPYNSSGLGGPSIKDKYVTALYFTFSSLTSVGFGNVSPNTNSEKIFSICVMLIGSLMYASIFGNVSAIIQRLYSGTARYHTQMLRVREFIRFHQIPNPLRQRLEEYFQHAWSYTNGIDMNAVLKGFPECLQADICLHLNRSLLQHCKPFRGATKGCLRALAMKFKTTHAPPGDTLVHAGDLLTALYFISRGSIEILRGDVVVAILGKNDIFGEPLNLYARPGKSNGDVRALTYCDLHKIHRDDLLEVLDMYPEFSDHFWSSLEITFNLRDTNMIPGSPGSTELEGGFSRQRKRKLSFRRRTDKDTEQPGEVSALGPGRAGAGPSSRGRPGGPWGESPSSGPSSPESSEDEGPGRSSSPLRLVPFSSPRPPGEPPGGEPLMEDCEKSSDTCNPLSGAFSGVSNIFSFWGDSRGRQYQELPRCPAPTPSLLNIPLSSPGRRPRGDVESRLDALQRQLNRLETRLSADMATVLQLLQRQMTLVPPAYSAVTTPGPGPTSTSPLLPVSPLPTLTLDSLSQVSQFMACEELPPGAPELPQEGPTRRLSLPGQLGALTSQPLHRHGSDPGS
row,SMILES,"hERG current change (%, negative = inhibition) at 1uM [%]"
1,N#CC1=C2SCN(Cc3ccccc3)CN2C(=O)CC1c1ccccc1F (stereo not shown),10.4
2,COc1ccc(C(=O)CC(=O)c2ccc(OC)cc2)cc1,15.8
3,COc1cccc(NC(=O)CSc2ccc(-c3sc(C)nc3C)nn2)c1,10.4
4,COc1cc(NC(=O)c2cccs2)ccc1NC(=O)c1ccccc1Cl,6.14
5,C=CCOc1c2ccc(C(=O)NC3CCCc4ccccc43)cc2nn1C (stereo not shown),6.6
6,O=S(=O)(Nc1ccccn1)c1cccc(S(=O)(=O)c2ccc(Br)cc2)c1,1.92
7,C=CCn1c(NC(=O)c2ccc(Br)o2)c(S(=O)(=O)c2ccccc2)c2nc3ccccc3nc21,8.45
8,O=C(O)c1ccc(NC(=S)NC(=O)c2cccnc2)cc1,16.2
9,CS(=O)(=O)c1cccc(-c2nnc(NC(=O)C3=COCCO3)o2)c1,0.983
10,O=C(NCc1ccc(F)cc1)C(c1ccccc1)N(C(=O)c1csnn1)C1CCCC1 (stereo not shown),10.1
11,O=C(CN1C(=O)CNC1=O)Nc1cccc(C(F)(F)F)c1,15.1
12,O=C(CSCc1ccccc1)NNC(=S)Nc1cccc(Cl)c1Cl,2.19
13,Cl.Clc1ccc(CSC2=NCCCN2)cc1Cl,3.8
14,CS(=O)(=O)N1N=C(c2ccccc2)CC1c1cccs1 (stereo not shown),13.4
15,Cc1c(Cl)c([N+](=O)[O-])nn1CC(=O)N1CCCc2ccccc21,24.8
16,Cc1ncc(CN2CCN(Cc3ccc(F)cc3)C(CCO)C2)s1 (stereo not shown),28
17,COCCCNC(=O)CS(=O)Cc1nc(-c2ccccc2C)oc1C (stereo not shown),1.15
18,O=C(NNC(=O)c1cccs1)c1cccnc1,10
19,O=C(CN1C(=O)COc2ccccc21)N(CCCN1CCOCC1)CC1CC=CCC1 (stereo not shown),4.77
20,O=C(NCc1ccco1)C(c1cccs1)N(C(=O)C1COc2ccccc2O1)c1cccc(O)c1 (stereo not shown),-3.63
21,Cc1ccc(CN2CCN(CC(C)C)C(CCO)C2)s1 (stereo not shown),2.88
22,C[C@@H]1CCC2[C@](C)(CO)[C@@H](O)CC[C@]2(C)[C@@]12CCC(CO)(CCO)O2 (stereo partly shown),33.2

row,SMILES,"hERG current change (%, negative = inhibition) at 1uM [%]"
1,COc1ccc(/C=C(/NC(=O)c2ccccc2Cl)C(=O)NCCCC(=O)O)cc1,17.7
2,CCn1c(Cc2ccccc2)nnc1SCC(=O)c1c(N)n(C2CC2)c(=O)[nH]c1=O,-5.82
3,COc1cc(NC2c3ccccc3C(=O)N2c2ccc(C)cn2)cc(OC)c1OC (stereo not shown),-6.43
4,Br.C=CCn1c(=N)n(CC(=O)c2cccc([N+](=O)[O-])c2)c2ccccc21,-22.6
5,Nc1nc(CCl)nc(Nc2ccccc2)n1,17.8
6,COc1cccc(C(=O)NCCSc2ccc(F)cc2)c1,13.4
7,O=C(CSCc1c(Cl)cccc1Cl)Nc1cccnc1,0.202
8,COc1cc(C)c(Cl)c(C)c1S(=O)(=O)NCc1ccc2c(c1)OCO2,11.5
9,O=C(O)c1cncc(C#Cc2ccccc2)c1,14.4
10,COc1ccc(/C=N/Nc2ccc(C(=O)O)cc2)cc1Br,14.2
11,CSc1ccccc1NC(=O)COC(=O)CSc1ccc(C)cc1,8.78
12,O=C1C(C2=NC(c3ccccn3)C3C(=O)N(c4ccccc4)C(=O)C23)=C(O)c2ccccc21 (stereo not shown),6.22
13,Cc1cccc(-c2cc(C(=O)NCc3ccccn3)c3ccccc3n2)c1,8.69
14,CCC1CN(C(=O)NCc2ccc(C)cc2)c2ccccc2O1 (stereo not shown),20.8
15,COc1cccc(CNC(=O)CCS(=O)(=O)c2cccc3nonc23)c1,15
16,COc1ccc(NC(=O)CCNS(=O)(=O)c2cccc(C(C)=O)c2)cc1S(N)(=O)=O,11.8
17,COC(=O)C1=C(c2ccc(C(C)=O)cc2)C[C@@H]2CC[C@H]1N2C,5.94
18,CC(=O)N1CCN(C(=O)COc2ccc(Br)cc2)CC1,3.21
19,CC1=C(C(=O)Nc2ccc(C)cc2C)C(c2ccc(Cl)cc2)n2nc(C(=O)OC(C)C)nc2N1 (stereo not shown),11.9
20,CC1CCc2sc3ncnc(N4CCN(CCO)CC4)c3c2C1 (stereo not shown),-0.367
21,COc1cccc(NC(=O)N2CCCC2C(=O)Nc2cc(C)ccc2OC)c1 (stereo not shown),11.6
22,CSc1nc2ccc(NC(=O)C3=NNC(=O)CC3)cc2s1,16.1

row,SMILES,"hERG current change (%, negative = inhibition) at 1uM [%]"
1,O=C(CCCN1C(=O)c2ccccc2C1=O)NCCc1ccc(OC(F)F)cc1,-29.4
2,O=c1[nH]c(=S)[nH]c2nc(-c3cccs3)cc(C(F)(F)F)c12,15.4
3,CCCSc1ccc(C(=O)Nc2ccc(F)cc2F)cn1,5.11
4,CC(=O)c1ccc(OCC(O)CN2CCN(S(=O)(=O)c3c(C)c(C)cc(C)c3C)CC2)cc1 (stereo not shown),17
5,O=C(Nc1ccc(F)cc1)N(CCCN1CCOCC1)Cc1cc2cc3c(cc2[nH]c1=O)OCCO3,9.34
6,COc1cccc(C(=O)Nc2nnc(C(C)C)s2)c1,10.3
7,COc1cc(/C=C/c2c([N+](=O)[O-])c(=O)n(C)c(=O)n2C)cc(OC)c1OC,5.97
8,CC(=O)c1ccc(NC(=O)C(=O)c2cn(CC(=O)N3CCCCC3)c3ccccc23)cc1,12.8
9,COC(=O)c1cc(CSc2ncnc3sccc23)oc1C,7.03
10,CC(Oc1ccc(F)cc1)C(=O)Nc1ccccc1C(=O)NC1CC1 (stereo not shown),0.331
11,CNCC(C)COc1ccccc1OCc1ccccc1.O=C(O)/C=C\C(=O)O (stereo not shown),-0.183
12,Cc1ccccc1-c1cc(-c2ccccc2O)on1,6.66
13,NC(=O)[C@@H]1CCCN1Cc1nc(-c2ccccc2)no1,6.67
14,N#C/C(=C\c1cn[nH]c1-c1ccccc1)C(=O)NC1CCCCCC1,6.75
15,CCCc1nc2sc3c(=O)n(N)cnc3c2c2c1CCCC2,10.9
16,Cc1[nH]n(-c2ccccc2)c(=O)c1N=Nc1c(Cl)cccc1Cl,13.7
17,CCn1cc(C(=O)NCc2ccc3c(c2)OCO3)c(=O)c2cc(S(=O)(=O)N3CCOCC3)ccc21,0.795
18,CCOC(=O)NC(NCc1ccccc1Cl)(C(F)(F)F)C(F)(F)F,11.1
19,CCNc1c(NC(=O)c2ccc3c(c2)OCO3)c(=O)oc2ccccc12,15
20,CCOC(=O)Nc1ccc(S(=O)(=O)N2CCC(C)CC2)cc1,5.78
21,CCC(C)(C)NC(=O)C1c2ccccc2Oc2ccccc21,16.1
22,CCN(CC)C(=O)c1ccc(Cn2cc([N+](=O)[O-])cn2)o1,3.35

row,SMILES,"hERG current change (%, negative = inhibition) at 1uM [%]"
1,CC(=O)Nc1ccc(C2C(=O)c3ccccc3C2=O)cc1,16.4
2,COc1cccc(-c2nc(COc3ccc(Cl)cc3Cl)no2)c1,13.2
3,O=C(c1cccc(Cl)c1)N1CCC2(CC1)NCCc1[nH]cnc12,19.8
4,O=C(CSc1ncnc2sc3c(c12)CCCC3)c1ccco1,4.23
5,CCn1c(=S)sc2nc(C)sc21,14.4
6,CCC(=O)N1CCCc2cc(S(=O)(=O)N3CCN(C4CCCCC4)CC3)ccc21,4.18
7,C/C(=C\c1ccco1)CN1CCC(N2CCC(C(=O)N3CCOCC3)CC2)CC1,-23.3
8,Cc1ccccc1NC(=O)Cn1nc(-c2ccccc2)nc1-c1ccccc1,-0.709
9,CC(=O)c1cccc(S(=O)(=O)N(CCCO)Cc2cc3ccc(C)cc3[nH]c2=O)c1,2.37
10,CC(Sc1nc(-c2ccccc2)cc(C(F)(F)F)n1)C(=O)Nc1sc2c(c1C(N)=O)CCC2 (stereo not shown),13.6
11,COc1ccc(/C=N/NC(=O)CNC(=O)c2ccc(S(=O)(=O)N3CCOCC3)cc2)c(OC)c1,-1.11
12,Cc1cc(C)c(S(=O)(=O)c2ccccc2C)c(OCCN(C)C)n1,6.5
13,C/C=C(\C)C(=O)NCCN1C2=NC[C@@H](C)N2C[C@H]1Cc1ccc(O)cc1,9.7
14,O=C(/C=C/c1ccco1)N1CCN(C/C=C/c2ccccc2)CC1,-9.04
15,Cc1ccccc1N(CC(=O)NCCSCc1ccccc1)S(C)(=O)=O,6.37
16,O=C(c1ccc2c(=O)n(Cc3ccccc3Cl)c(=S)[nH]c2c1)N1CCOCC1,13
17,CCN(Cc1nc2cc(Cl)ccc2c(=O)[nH]1)C(=O)c1cccc(OCc2c(C)noc2C)c1,0.812
18,COc1ccc(OC)c(C2NC(=O)CCC2[N+](=O)[O-])c1 (stereo not shown),10.9
19,Cc1nc(-c2ccccn2)nc(SCC(=O)N2CCOCC2)c1Cl,10.7
20,O=C(N/N=C/c1c[nH]c2ccc(Br)cc12)c1ccc2c(c1)OCO2,19.5
21,Cc1cc(/C=N\NC(=O)CC(=O)NC2CCCCC2)c(C)n1-c1cccc(Cl)c1Cl,-1.34
22,COCC1CCCN(C(=O)c2ccc3nc(Cc4cccc(Cl)c4)oc3c2)C1 (stereo not shown),9.38

# Source: article PMC4336329 (PLoS ONE, 2015)
